The chains are these.
T1: UNK ZnF1-3 (human, UniProt Q9C0B0 31-174)
T1 sequence: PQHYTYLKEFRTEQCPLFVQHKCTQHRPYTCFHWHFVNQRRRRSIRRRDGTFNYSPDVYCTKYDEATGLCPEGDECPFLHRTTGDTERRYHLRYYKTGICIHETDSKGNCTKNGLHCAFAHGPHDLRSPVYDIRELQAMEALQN

B1: chr2:104630212:104630213:-_ENSMUSG00000074994_ENSMUST00000117237|mus_mus|motif|central (ssRNA)
RNA: GGGAGUUCUACAGUCCGACGAUCUGUAGUGUUAAAAGAUGAAUCUUGAAGCACCAAAGGUGAGGUGGUCGCAAAGUUUCGGUUGCGGAAGGUAGAUGAAUGCUGAUAGGCAGACAAAGUUGGUGGUGGAAGUGUCCCAGUGGUCAACAGAGGAUUGAGCAUCA
B2: chr6:41757443:41757444:+_ENSG00000214736_ENST00000398881|hu_mus|hu_hu_hu_mus_False|1_98 (ssRNA)
RNA: GGGAGUUCUACAGUCCGACGAUCGAACCGUGCAGAGACCAGAGAAUAGCCGACACUGGGGGAUGGGGGGGCAGUGGGGGGGGGUUCAGGCAAGGAGAGGGAGUCAACUUCAGCUGCCACUCAGGUAGGAUCUUGUGGGGCACACAACAGAGGAUUGAGCAUCA
B3: chr5:24093644:24093645:+_ENSMUSG00000038181_ENSMUST00000088295|mus_mus|motif|central (ssRNA)
RNA: GGGAGUUCUACAGUCCGACGAUCUUCCCAACCCUAUGUCUGGUCUUCAGUGGCCAUGGUGCUGAUACCCUCAGUAAAAUACGGAUGUCUAUGUGAGCAAUGCCACUCCCUACGGGGAUUGCAGUCUGUAGUCCAGGAAAAAGACAACAGAGGAUUGAGCAUCA
B4: chr2:47387770:47387771:-_ENSG00000143933_ENST00000272298|hu_mus|FALSE|FALSE (ssRNA)
RNA: GGGAGUUCUACAGUCCGACGAUCAAGGUUUAAGGACAAUGACAGUAAGAUAAGGGAAGAAAACAUGGAGGAAUGAAGUCCUAAUUACUAUACAUGCAUAUUUUUUGACAGUAGGGGGGGGGAACCUUUUACAGAUAAGUUACACAACAGAGGAUUGAGCAUCA
B5: chr11:100882373:100882374:+_ENSMUSG00000019302_ENSMUST00000044721|mus_mus|mus_mus_mus_hu_True|48_108 (ssRNA)
RNA: GGGAGUUCUACAGUCCGACGAUCUUCCUGGUUAGUGUUGAUUUCCUUCAGUUCAUUUUCAAUCUUCUCAAAAUUGGCCUCUAAGUCGAUCAUGUCCCGGGGGAAGGGAACCUCUGGGUUUUCACCGGUGUCCAUAAUCGGAAUCAACAGAGGAUUGAGCAUCA
B6: chrX:71549762:71549763:+_ENSMUSG00000019087_ENSMUST00000019231|mus_mus|mus_mus_mus_hu_False|68_78 (ssRNA)
RNA: GGGAGUUCUACAGUCCGACGAUCAAACCCGUGUACUUCUUAUUGUUAGCACAACAUUCCCCCCCAAAAAACAUAACAGCCAAGCAGGACAGACAGUUAAGUAGUACUUCCACACUCCCAAACUCAGGGAGCCCUAUAACCUUACAACAGAGGAUUGAGCAUCA
B7: chr11:87793471:87793472:-_ENSMUSG00000020483_ENSMUST00000020775|mus_mus|mus_mus_mus_hu_False|68_68 (ssRNA)
RNA: GGGAGUUCUACAGUCCGACGAUCUGGACUUGAAAAUAAAAGAAUAAGCUGGAUCCCCCACCCCCCCACAGUGUCAACCCUACACGAGAGUUUUGAAGGCGACUCAUGAAAAUCAGCAGCUCAAACGGCAAUGACCACCCCACCCAACAGAGGAUUGAGCAUCA
B8: chr13:28239862:28239863:+_ENSG00000186184_ENST00000399697|hu_mus|FALSE|FALSE (ssRNA)
RNA: GGGAGUUCUACAGUCCGACGAUCCUCUUUAUGGGAGGGCAGUGUGUUCUUAAUUGUGUUAAUUAGGAAUCUUUUAUUUGUACCAGCAAGAGGACACUUCAUCCAGCCCAUCGGCCCCAUUGUCUCCGCUCUGGUUUUCCCACGCAACAGAGGAUUGAGCAUCA
B9: chr1:235599081:235599082:+_ENSG00000116957_ENST00000366601|hu_mus|FALSE|FALSE (ssRNA)
RNA: GGGAGUUCUACAGUCCGACGAUCAGAUCUGCUAUAAGGCUCAGCUGGCUUUCAUCAAUUGAUGGGUUGGAGGAAAGGUCUAGUAACCUCAUUUUCUGCAGGACAUUCACUGGCCUUUCAGAAAUGGAAAUAUUGUUAGACUUGCAACAGAGGAUUGAGCAUCA
B10: chr4:115894766:115894767:+_ENSMUSG00000028698_ENSMUST00000030464|mus_hu|mus_mus_mus_hu_True|48_78 (ssRNA)
RNA: GGGAGUUCUACAGUCCGACGAUCUUCCACACGGAAAUGUACUUCGGGUUUUCCAACGCCAGUACAAAGUCCGGCCAAACUACCCGAUGAGGACAAGCCCCCUCUCUCCUACAGAACACAACAAAAUGCCCCCGAACUUUCAAGCAACAGAGGAUUGAGCAUCA
B11: chr7:54825262:54825263:-_ENSG00000132432_ENST00000352861|hu_hu|hu_hu_hu_mus_False|1_58 (ssRNA)
RNA: GGGAGUUCUACAGUCCGACGAUCCUGCCGGCUGGGCUCCACAAACUGCAUUACCUGAUCCAUGUUUGUUGGAUGGCACACCUAAAACGUAGAGACACGUAGCUCAGGAGAGAACCGAGCCCAACGGAACCGGAAGCGGAAUCCCAACAGAGGAUUGAGCAUCA
B12: 97800885_97814381_1043_CDS_ENSG00000164715_ENST00000297293|human|control|control (ssRNA)
RNA: GGGAGUUCUACAGUCCGACGAUCAUUCCGCAGGGCUAAAUCACUGUGCAGGAAGUGCAGCUUGUGCAUGGCGGCCAGCCCCGCGGCGACCUCGCACGCCAUCCUCUGCAGCAGCAUGGUCUGUGAGUCCCCCCGCAUGUGCUCCAACAGAGGAUUGAGCAUCA
B13: chr19:40827925:40827926:-_ENSG00000160392_ENST00000392035|hu_mus|FALSE|FALSE (ssRNA)
RNA: GGGAGUUCUACAGUCCGACGAUCGCUGCUCCCCCGGGGCCCUACCAGAGUCCUUUUAAUGGCGAACUUGACCUCAGCUGAGGACUUACUCUUGGUGCUUGUGACCUGGCUGUCCUGUGCCUCGGACACAACGGCAGCCUUGCCCAACAGAGGAUUGAGCAUCA
B14: chr4:140556289:140556290:+_ENSMUSG00000036622_ENSMUST00000037055|mus_mus|mus_mus_mus_hu_False|68_78 (ssRNA)
RNA: GGGAGUUCUACAGUCCGACGAUCGAUGGAGCUCACCAGGCCCCCUUUUGCCGUGCAGAACCCUGUCCGAGUCACCACUGCCAGGACGUGCGGUCCCACAUAGGCCCGGGCCUGCAAGAUGAGGGUCCCGCAGAAGAGUGUGUGCAACAGAGGAUUGAGCAUCA
B15: chr7:71034301:71034302:-_ENSMUSG00000052040_ENSMUST00000063694|mus_hu|FALSE|FALSE (ssRNA)
RNA: GGGAGUUCUACAGUCCGACGAUCGGACUUUGGAAUAAAAUUCCUGAACCUGGAAUGUGAAUUCCUGAGACAUAAAAUGUAUUCAGAGUGUGGCUUUCUCUGCCUCACACGAAAACAACUUUGGGAGGGACCUCACUUUGGAACCAACAGAGGAUUGAGCAUCA
B16: chr10:127182121:127182122:+_ENSMUSG00000044617_ENSMUST00000054287|mus_mus|FALSE|FALSE (ssRNA)
RNA: GGGAGUUCUACAGUCCGACGAUCAAAGAGAUGCUGGGUAGUAUGUAUACCAAACAAAACAAAAAAUAAUAAUAAAAUAAAUAUUAAUGUCUAGAAAGGCUUUGUGAGUUAAUUAAAACCACUUGCUUAUGAAACAGCCCAGAGCAACAGAGGAUUGAGCAUCA
B17: chr9:50413139:50413140:+_ENSMUSG00000039016_ENSMUST00000044051|mus_mus|FALSE|FALSE (ssRNA)
RNA: GGGAGUUCUACAGUCCGACGAUCGAUCUGGGCAAACCGACCGGUGAUGGCAAGAGUAGUGUCAAUGAAGCGAUCCACACAGCUAGAGAGGCAGUUUUCAGUGCGGGAGUCUAGCCGACUUCCUGGCUUCUCCACACACUUAUCCAACAGAGGAUUGAGCAUCA
B18: chr1:52246310:52246311:-_ENSMUSG00000026103_ENSMUST00000114513|mus_mus|FALSE|FALSE (ssRNA)
RNA: GGGAGUUCUACAGUCCGACGAUCGCCCAUCUUGUCAAGAGGAGGAGACCAACACAUCAUGCCCAUGACGUUGGGGACAACUAAAAGAAUACCCCCAGCAACUCCAGAUUUUGCAGGAAGACCAACAUGGAACGCAAACUGCCCCAACAGAGGAUUGAGCAUCA
B19: chr12:42180722:42180723:-_ENSMUSG00000036295_ENSMUST00000043884|mus_hu|mus_mus_mus_hu_True|8_88 (ssRNA)
RNA: GGGAGUUCUACAGUCCGACGAUCCUGUAGGAGAAGAAUCUGUGUGUCGGCAGGCAAUCUGGCUGGGAAAGUUAAAAGACCUAAAUCAUUACAAUCCACUGUAGAUGCUUCCAUAUAAAUGGAUCUGGGGGUAAACCAAGGCCUCAACAGAGGAUUGAGCAUCA
B20: chr11:70698419:70698420:+_ENSMUSG00000020817_ENSMUST00000076270|mus_mus|FALSE|FALSE (ssRNA)
RNA: GGGAGUUCUACAGUCCGACGAUCUUUCAUUAUAGCCUGAAGUGAAGCAACUUCUUCUCUCCAUUGCCUUUUAACUUCAUCUAUAGCUUCUUGCUUAGUAUUCUCAGAGACUGUGGCAAUUGCCUUAAUGUUCUCCAUCUCUGCCAACAGAGGAUUGAGCAUCA
B21: 79877754_79877874_3371_3pUTR_ENSG00000197063_ENST00000357736|human|control|control (ssRNA)
RNA: GGGAGUUCUACAGUCCGACGAUCGAGGUAUGGCCUCGAAACUCCAGAAGCCUCUUCUGCCAACGCACCGAGGACCUGCACCUCCCAUUCAGCACGCGUCGACCCUUACACCCUCCUCUUCCACACUCCCUUCGCCUCCAGGUCCAACAGAGGAUUGAGCAUCA
B22: chr7:141441981:141441982:+_ENSG00000106028_ENST00000265304|hu_mus|hu_hu_hu_mus_False|1_48 (ssRNA)
RNA: GGGAGUUCUACAGUCCGACGAUCCUCAUGUCUUACAAACUGACGAAAUACCUGUAACACAGGUCUUCGAAACAUGGCUUCUGUUUUCUUUUCUUACUAAUCUUUAGGCUUUUCCUAAAGGAAAGAAAGAAAAGAGAAGCCCAGCAACAGAGGAUUGAGCAUCA

This is one part of the list.

For this assay, the target named is T1, UNK ZnF1-3. Kind of assay: nsRBNS (natural sequence RNA bind-n-seq); RBNS binding buffer (assumed for nsRBNS): 25 mM Tris pH 7.5, 150 mM KCl, 3 mM MgCl2, 0.01% Triton X-100, 500 ug/ml BSA, 20 U/ml SUPERase-In, 4 C; UNK is unkempt and MSI1 is Musashi-1; names of the RNAs are library labels; protein concentration not given here; high values mean tight binding.
For the molecule B1, the binding signal came out at 1.57 enrichment R.
The molecule B2 registered a binding signal of 2.73 enrichment R.
The molecule B3 yielded a binding signal of 0.964 enrichment R.
B4 showed a binding signal of 2.35 enrichment R.
On to B5, for which the binding signal was determined as 0.74 enrichment R.
In turn, B6 showed a binding signal of 1.72 enrichment R.
Take B7: the binding signal came to 1.84 enrichment R.
Turning to B8, the binding signal turned out to be 0.79 enrichment R.
The molecule B9 registered a binding signal of 1.36 enrichment R.
In turn, B10 displayed a binding signal of 0.969 enrichment R.
Molecule B11 displayed a binding signal of 0.966 enrichment R.
Then B12, with 0.557 enrichment R; and B13, with 0.713 enrichment R; and B14, with 1.3 enrichment R.
With B15, the binding signal turned out to be 0.938 enrichment R.
The molecule B16 showed a binding signal of 1.71 enrichment R.
Molecule B17 displayed a binding signal of 1.86 enrichment R.
B18: the binding signal stood at 1.31 enrichment R.
The molecule B19 had a binding signal of 1.17 enrichment R.
The molecule B20 displayed a binding signal of 0.444 enrichment R.
The figure for B21 is 1.15 enrichment R.
In turn, B22 gave a binding signal of 0.31 enrichment R.

The values above are taken from publication PMC12136788.
